# The source gives no read counts; variants with many changes may rest on few reads.
# B1: CPEB3 Ribozyme (parent)
# chain: UAACAGGGGGCCACAGCAGAAGCGUUCACGUCGCAGCCCCUGUCAGAUUCUGGUGAAUCUGCGAAUUCUGCUGUAUAUCUC
# Variants of: B1
# Assay: self-cleavage, relative activity (ratio to wild type); higher = more cleavage; in vitro, sequencing
# Summary of the method: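 For each CPEB3 ribozyme variant, relative activity is its cleaved/total read fraction divided by the unmutated ribozyme's. Barcoded error-prone PCR libraries were transcribed by T7 RNA polymerase (5 hours, 37°C) and held in DNase I for 15 min before an EDTA stop, with cleavage occurring throughout. Template-switching reverse transcription and Illumina sequencing were used to read the RNAs. A 5-read minimum applied, and results are the mean of three batches.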
row,Variant,self-cleavage
1,UAACAGGGGGCCUCAGCAGAAGCGUUCACGCCGCAGCCCCUGUCAGAUUCUGGUGAAACUGCGAAUUCCGCUGUAUAUCUC,0.2
2,UAACAGGGGGCCUCAGCAGAAGCGUUCACGUCGCAGCCCCUGUCAGAUUCAGGUGGAUCUGCGGAUUCGGCUGUAUAUCUC,0.27
3,UAACAGGGGGCCUCAGCAGAAGCGUUCACGUCGCAGCCCCUGUCACAUUCUGGUGAAUCUGCGAAUUCUGCUGUAUAUCAC,0.31
4,UAACAGGGGGCCUCAGCAGAAGCGCUCACGUCGCGGCCCCUGUCAGAUUCUGGUGAAUCUGCGAAUUCUGCUGUAUAUCUC,0.43
5,UAACAGGGGGCCUCAGCAGAAGCGUUCACGUCGCAGCCCCUGUCAGAUUCUGGCGAAUCUGCGAAUUCCGCUGUAUAUCUC,0.46
6,UAACAGGGGGCCUCAGCAGAAGCGUUCACGUCGCAGCCCCUGUCAGAUUCUGGUGAAUCUGCGAAUACUGCUGUAUGUCUC,0.89
7,UAACAGGGGGCCUCAGCAGAAGCGUCCACGUCGCAGCCCCUGUCAGAUCCUGGUGAAUCUGCGUAUUCCGCUGUUUAUCCC,0.09
8,UAACAGGGGGCCUCAGCAGAAGCGUUCACGACGCAGCCCCUGUCAGAUUCUGGUGAAUCUGCGAAUCCAGCUGUAUAUCUC,0.09
9,UAACAGGGGGCCUCAGCAGAAGCGUUCACGUCGCAGCCCCUGUCAGAUCCUGGUGUAUCUGCGAAUUCUGCAGUAUAUCUC,0.25
10,UAACAGGGGGCCUCAGCAGAAGCGUUCACGACGCAGCUCCUGUCAGAUUCUGGUGAAUCUACGAAUUCUGCCGAAUAUAUC,0.23
11,UAACAGGGGGCCUCAGCAGAAGCGUACACGUCGCAGCCCCUGUCGGAUUCUGGUGGAUCUGCGAAUUCUGCUGUAUAUCUC,0.57
12,UAACAGGGGGCCUCAGCAGAAGCGUCCACGUCGCGGCCCCUGUCAGAUUCUGGUGAACCUGCGAAUUCUGCUGUAUAUCUC,0.67
13,UAACAGGGGGCCUCAGCAGAAGCGCUGACGUCGCAGCCCCUGUCAGAUUCUGGUGAAUCUGCGACUUCUGCUGUGUAUCUC,0.08
14,UAACAGGGGGCCUCAGCAGAAGCGUUCACGACGCAGCCCCUGUCAGAUUCUGGUGAAUCUGCGAAUUCUGCUCCGUAUCUC,0.92
15,UAACAGGGGGCCUCAGCAGAAGCGUUCACGUCGCAGCCCCUGCCGGACUCUGGUGGAUCUGCGAAUUCUGCUGUAUAUCUC,0.48
16,UAACAGGGGGCCUCAGCAGAAGCGUUCACGUCGCAGCCCCUGUCAGAUUCUGGUGAAUCUGCGAAUUCUACUGUACAUCUC,0.95
17,UAACAGGGGGCCUCAGCAGAAGCGUUCACGUCGCAGCCCCUGUCAGAUUCUGGGGAAUCUGCGAAUUUUGCUGUAUAUCCC,0.62
18,UAACAGGGGGCCUCAGCAGAAGCGUUCACGUCGCAGCCCCUGUCAGAUUCAGGUGAAACUGCGAAUUCUGCUGUAUAUCUC,0.4
19,UAACAGGGGGCCUCAGCAGAAGCGUUCACGUCGCAGCCCCUGUCAGAUUCUGGUAAAUCUGCGAAUUCAGCUGUAUAGCUC,0.18
20,UAACAGGGGGCCUCAGCAGAAGCGCUCACGUCGCAGCCCCAGUCAGAUUCUGGUGAAUCUGCGAAUUCUGCUGUAUAUCUC,0.11
21,UAACAGGGGGCCUCAGCAGAAGCGUUCACGUCGCAGCCCCUGCCAGAUUCUGGUGAAUCUGCGAAUCCUGCUGUAUAUCUC,0.17
22,UAACAGGGGGCCUCAGCAGAAGCGCUCACGUCGCAGCCCCUGUCAGAUCCUGGUGAAUCUGCGAACUCCGCUGUAUAUCUC,0.18
23,UAACAGGGGGCCUCAGCAGAAGCGAUCACGUCGCAGACUCUGUCAGAUUCUGGUGAAUCUCCGAAUUCUGCUGUAUAUCUC,0.07

row,Variant,self-cleavage
1,UAACAGGGGGCCUCAGCAGAAGCGUUCACGUCGCAGCCCCUGUCAGACUCUGGUGAAUCUGCGGAUUCUGCUGUAUAUCUC,0.15
2,UAACAGGGGGCCUCAGCAGAAGCGUUCACGUCGCAGCCCCUGCCAGAUUCUGGUGUACCUGCGAAUUCUGCUGUAUAUCUC,0.03
3,UAACAGGGGGCCUCAGCAGAAGCGUUCACGUCGCAGCCCCAGUCAGAUUCUGGUGAAUCCGCGAAUUCUGCUGUAUAUCUC,0.08
4,UAACAGGGGGCCUCAGCAGAAGCGUUCACGUCGCAGCCCCUGUCAGAUUCUGGUUAAUCUGCGAAUUCUGCUGUAUAUCCC,1.27
5,UAACAGGGGGCCUCAGCAGAAGCGUUCACGCCGCAGCCCCCGUCAGAUUCUGGUGAAUCUGCGAAUUCUGCUGUAUAACUC,0.75
6,UAACAGGGGGCCUCAGCAGAAGCGCUCACGUCGCAGCCCCUGUCAGAUUCUGGUGAAUCUGCGAACUCUGCUGUAUAUCUC,0.04
7,UAACAGGGGGCCUCAGCAGAAGCGUUCACGUCGCAGCCCCUGUCAGAUACUGGUGAAUCUGCGAAUUCUGCUGUAUAUUUC,1.2
8,UAACAGGGGGCCUCAGCAGAAGCGCUCGCGUCGCAGCCCCUGUCAGAUUCUGGUGAGUCCGCGAACUCUGCUGUAUACCUC,0.03
9,UAACAGGGGGCCUCAGCAGAAGCGUCCACGUCGCAGCCCCUGUCAGAUUCUGGUGAGUCUGCGAAUUCUGCCGUAUGUCUC,0.23
10,UAACAGGGGGCCUCAGCAGAAGCGUUCACGACGCAGCCCCUGUCAGAUUCUGGUGAAUCCGCGAAUUCUGCUGAAUAUCUC,0.23
11,UAACAGGGGGCCUCAGCAGAAGCGUCCACGUCCCAGCCCCUGUCAGAUUCUGGUGAAUCUGCGAAUUCUGCUGUGUAUCUC,0.12
12,UAACAGGGGGCCUCAGCAGAAGCGCUCACGUCACAGCCCCUGUCAGAUUCUGGUGUAUCUGCGAAUUCUGCUGUAUAUCUC,0.1
13,UAACAGGGGGCCUCAGCAGAAGCGUUCACGUCGCAGCCCCUGUCAGAAUCAGGUGAAGCUGCGAAUUCUGCUGUAUAUCUC,0.15
14,UAACAGGGGGCCUCAGCAGAAGCGUUCACGUCGCAGCCCCUGCCUGAUUCUGGUGAAUCCGCGAAUUCUGCUGUAUAUCUC,0.21
15,UAACAGGGGGCCUCAGCAGAAGCGUUCACGUCGCAGCCCCUGUCAGAUUCUGGUGAAUCUGCGAAUUCCGCAGUAUAUCUC,0.3
16,UAACAGGGGGCCUCAGCAGAAGCGUUCACGUCGCAGCCCCUGUCAGAUUCUGGUGAAUCAGCGAACUCUGCUGUAUAUCUC,0.21
17,UAACAGGGGGCCUCAGCAGAAGCGUUCACGUCGCAGCCCCUGUCAGAUCCUGGUGAAUCUGCGAACUCUGCUGUAUAUCUC,0.49
18,UAACAGGGGGCCUCAGCAGAAGCGUUCACGUCGCAGCCCCUGUCAGAAUCUGGUGAAUCUGCAAAUUCUGCAGAAUAUCUC,0.06
19,UAACAGGGGGCCUCAGCAGAAGCGUUCACGUCGCAGCCCCUGUCAGAUUCUGGCGAAUCUGCGUAUACUGCUGUAUAUCAC,0.2
20,UAACAGGGGGCCUCAGCAGAAGCGUCCACGUCGCAGCGCCUGUCAGAUACUGGUGAAUCUGCGAAUUCUGCCGUAUAUCUC,0.06
21,UAACAGGGGGCCUCAGCAGAAGCGAUCACGUCGUAGCCCCUGCCAGAUUCUGGUGAAUCUGCGAAUUCUGCUGUAUAUCUC,0.1
22,UAACAGGGGGCCUCAGCAGAAGCGUACACGACGCAGCCCCUGUCAGAUCCUGGUGAGUCCGCGAAUUCUGCUGUAUAUCUC,0.08
23,UAACAGGGGGCCUCAGCAGAAGCGUUCACGUCGCAGCCCCUGUCAGAUUCUGGCGAAUCUGAGAACUCUGCAGUAUAUCUC,0.23

row,Variant,self-cleavage
1,UAACAGGGGGCCUCAGCAGAAGCGUUCACGUCGCAGCCCCGGACAGAUUCUGGUGAAUCUGCGAAUUCUGCUGUAUAUCUC,0.13
2,UAACAGGGGGCCUCAGCAGAAGCGUUCACGCCGCAGCCCCUGUCAGAGUCUGGUGAAUCUGCGUAUUCCGCUGUAUAUCUC,0.33
3,UAACAGGGGGCCUCAGCAGAAGCGUCCACGACGCAGCCCCUGUCAGAUUCUGGUGAAUCUGCGAAUUCUGCUGUAUAUCUC,0.18
4,UAACAGGGGGCCUCAGCAGAAGCGUUCACGUCGCAGCCCCCGUCAUAUUCUGGUGAAUCUGCGAAUUCUGCUGUAUAUCUC,0.19
5,UAACAGGGGGCCUCAGCAGAAGCGCUCACGUCGCAGCCCCCGACAGAUUCUGGUGAAUCUGCGAAUUCUGCAGUAUAUCAC,0.07
6,UAACAGGGGGCCUCAGCAGAAGCGUUCACGUCGCAGCCCCUGGCAGAUUCCGGUGAAACUGCGAAUUCUGCUGUAUAUCUC,0.11
7,UAACAGGGGGCCUCAGCAGAAGCGUUCACGCCGCAGCCCCUGUCAGAUUCUGGUGAAUCUGCGAAUUCUGCCGUAUAUCUC,0.75
8,UAACAGGGGGCCUCAGCAGAAGCGUUCACGUCGCAGCCCCCGUCAGAUUCUGGUGAAUCUGCGAAUUCUGCUGUAUAUCCC,1.22
9,UAACAGGGGGCCUCAGCAGAAGCGUUCACGUCGCAGCCCCUGUCAGAUCCUGGUGAGUCUGCGGACUCUGCUGUAUUUCUC,0.09
10,UAACAGGGGGCCUCAGCAGAAGCGUUCACGUCGCAGCCCCUGCCAGAUCCUGGUGGAUCUGCGAAUUCUGCUGUAUAUCCC,0.89
11,UAACAGGGGGCCUCAGCAGAAGCGUUCACGCCGCAGCCCUUGUCAGAUUCUGGUGAAUCAGCUAAUUCUGCUGUAUAUCUC,0.16
12,UAACAGGGGGCCUCAGCAGAAGCGUUCACGUCGCAGCCCCUGCCAGAUUCUGGUGAAUCUGCGAAUUCUGCCGUAUAUCUC,0.72
13,UAACAGGGGGCCUCAGCAGAAGCGUACACGCCGCAGCGCCGGUCAGAUUCUGGUGAGUCUGCGAAUUCUGCUGUAUACCUC,0.03
14,UAACAGGGGGCCUCAGCAGAAGCGUUCACGUCGCAGCCCCUGUCAGAUUCCGGUGAAUCUGCGAAUUCAGCUGUAUAUCCC,0.5
15,UAACAGGGGGCCUCAGCAGAAGCGUUCACGUCGCAGCCCCUGCCAGAAUCUGGUGAAUCUGCGAAUUCUGCUGUAUAUCUC,0.1
16,UAACAGGGGGCCUCAGCAGAAGCGUUCACGCCGCAGCCCCUGUCAGAUUCUGGUGAAUCUGCGAAUUCUGCUGUGUAUCUC,1
17,UAACAGGGGGCCUCAGCAGAAGCGUACACGUCGCAGCCCCUGUCAGAUUCUGGUGAAUCUGCGGAUUCUGCCGAAUAUCUC,0.63
18,UAACAGGGGGCCUCAGCAGAAGCGUUCACGCCGCAGCCCCUGACAGAUUCUGGAGAAUCUGCGAAUCCUGCUGCAUAUCUC,0.16
19,UAACAGGGGGCCUCAGCAGAAGCGCUCACGUUGCAGCCCGUGCCAGAUUCUGGUGAAUCUGCGAAUUCUGCUGCACAUCUC,0.04
20,UAACAGGGGGCCUCAGCAGAAGCGCUCACGUAGCAGCCCCUGUCAGAUCCUGGUGAAUCUGCGAAUUCUGCUAUAUAUCUC,0.08
21,UAACAGGGGGCCUCAGCAGAAGCGUACACGUCGCGGCCCCAGUCAGAUUCUGGUGAAUCUGCGAAUUCUGCUGUAUUUCUC,0.33
22,UAACAGGGGGCCUCAGCAGAAGCGUCCACGUCGCAGCCCCUGUCAGAUUCUGUUGAAUCUGCGAAUUCUGCUGUAUAUCUC,0.68
